Measured values from ChEMBL document CHEMBL4888484, “Replenishing the malaria drug discovery pipeline: Screening and hit evaluation of the MMV Hit Generation Library 1 (HGL1) against asexual blood stage Plasmodium falciparum ,using a nano luciferase reporter read-out” (2022).
Out of some 150,000 compounds screened, about 540 (0.36%) showed an effect of 50% or more. Some of the results follow.

Tested on: Plasmodium falciparum
Test: Primary screen in NF54 nanoGlo assay, in single point, at 2uM, 72h; a lower Z score goes with more inhibition
Format: functional, Erythrocyte
Details: timepoint 72 hour

Compound | % Inhibition [%] | Z score
CN(C)Cc1ccc(-c2ccc3nc[nH]c(=O)c3c2)cc1 | -3 | 0.47
Cc1oc(-c2ccccc2)nc1[C@@H]1CC(=O)Nc2cc3[nH]ncc3cc21 | -7 | 1.3
O=C1CCN(Cc2ccc3c(c2)CCO3)CCOCCN1 | -1 | 0.15
O=C(O)[C@H]1CCCN1CCCOc1cccc(Cl)c1 | -3 | 0.37
CC(C)[C@@H](N)C(=O)NC[C@H]1CC[C@H](C(=O)N[C@@H](C(=O)O)C(C)C)CC1 | -7 | 0.98
O=C1NC2(CCOCC2)C(=O)N2Cc3ccccc3C[C@H]12 | -14 | 1.45
Cc1ccc(C(=O)N[C@H]2CO[C@H]3[C@@H]2OC[C@H]3OCc2ccccc2)cc1 | -12 | 2.19
O=C(CCn1ccnc1)NCc1ccc(F)cc1 | 16 | -1.7
Cc1nc2ccc(NC(=O)N(C)C3CCCCC3)cc2s1 | 19 | -2.44
O=C(NCc1n[nH]c(=O)[nH]1)c1ccc(Br)c(F)c1 | -6 | 0.79
NC(=O)c1cc(CN[C@H]2CCCCC23CCCC3)on1 | -7 | 1.26
O=C(c1ccc2c(c1)OCO2)N1CCc2[nH]n(-c3ccccc3)c(=O)c2C1 | 24 | -2.68
Cc1cccnc1NC(=O)C1CN(S(=O)(=O)C2CC2)C1 | -6 | 1
CCN1CC2(CCN(C(=O)c3ccc(Cn4nnnc4C)cc3)CC2)CC1=O | -20 | 2.35
CN(C)S(=O)(=O)NC1(Cc2ccccc2)CCCC1 | -15 | 1.67
CCc1cc2c(N3CCC(=O)N(C)CC3)ncnc2s1 | -4 | 0.49
Cc1ccc(NC(=O)NCCOc2cc(N3CCN(C)CC3)ncn2)cc1C | 18 | -2.38
CCc1nc2c(c(OC3CCN(S(=O)(=O)c4ccccc4CC)CC3)n1)CCOCC2 | -14 | 1.36
Cn1c(=O)[nH]c(=O)c2c1nc(N1CCN(C/C=C\c3ccccc3)CC1)n2Cc1ccc(Cl)cc1 | -17 | 2.16
COC1CCCC1NC(=O)CCCc1ccccc1 (stereo not given) | -4 | 0.38
COc1cccc(CNC(=O)c2ccc(S(=O)(=O)c3ccc(Cl)cc3)s2)c1 | -21 | 1.95
O=C(CCc1cn2ccccc2n1)NCc1ccc2c(c1)OCO2 | -10 | 1.12

Compound | % Inhibition [%] | Z score
CCOc1cc(CN2CCC([C@H](Cc3cccc(C(F)(F)F)c3)N(C)C(=O)CC)CC2)ccc1O | 2 | -0.19
C[C@H](Oc1cccc(C#N)c1)C(=O)N1CCN(C2CC2)CC1 | -8 | 0.91
O=C(NCCCc1ncc[nH]1)c1ccccc1-c1ccccc1 | -6 | 1.19
Cc1noc(C)c1CN(Cc1c(C)noc1C)C(=O)C1CC1C (stereo not given) | 30 | -3.39
O=C1CN(c2cccc3ccccc23)C(=O)N1 | -9 | 1.78
c1ccc2sc([C@@H]3CCCN3Cc3nc(C4CC4)no3)nc2c1 | 4 | -0.5
Cc1cc(C(=O)CN2C(=O)N[C@@](C)(c3cc(C)oc3C)C2=O)c(C)[nH]1 | -4 | 0.55
CC(C)(NC(=O)[C@H]1CCCO1)c1ccccc1NC(=O)[C@H]1CCCO1 | -4 | 0.54
Cc1ccc(CCNC(=O)Nc2nc(C)n(C(C)C)n2)o1 | -5 | 0.69
Cc1nn(C)c(C)c1S(=O)(=O)N[C@H](C)c1cncc(F)c1 | -6 | 0.97
C[C@@]1(C(=O)NC2CCCCC2)Cn2c(cc3occc32)C(=O)N1CCN1CCOCC1 | -8 | 1.55
Cc1ccc(O)c(NC(=O)[C@]2(c3ccccc3)CCCN2)c1 | -5 | 0.77
NC(=O)c1ccc(CC(=O)N2COCC[C@H]2c2ccccc2)cc1 | -6 | 1.1
COCCNc1nc(-c2ccc(F)cc2F)c2c(N)n(-c3cccc(F)c3)nc2n1 | -12 | 1.5
Cn1ncc(CN2[C@H](C(=O)NC3CC3)C[C@@H]3OCC[C@@H]32)n1 | -1 | 0.17
O=C(N[C@H]1Cc2ccccc2O[C@@H]1C(F)(F)F)c1cc2n(n1)CCO2 | -5 | 0.81
O=C(NCc1cccnc1N1CCOCC1)Nc1ccsc1 | 0 | -0.01
COc1cc(C(=O)NC2CCCCC2)nc2c(C)cc(F)cc12 | 26 | -3
CN(c1ncnc2c1cnn2C)C1CCCC1C(C)(C)C (stereo not given) | -3 | 0.5
O=C(NCCCC[C@H]1CCCO1)c1ccccc1-n1cnnc1 | -12 | 1.55
C[C@H]1CCCN(C(=O)c2cccc(-n3cc[nH]c3=O)c2)CC1 | -12 | 1.52
CCOCCN1CCN(C(C)C(=O)Nc2cc(C)on2)CC1CC (stereo not given) | -12 | 1.01

Compound | % Inhibition [%] | Z score
CNc1nc(CNc2ccc(C(=O)NC3CCCC3)nn2)cs1 | -3 | 0.37
O=C(CC1(O)CCC1)NCCc1cc(C(F)(F)F)ccn1 | -4 | 0.73
COCCC(=O)NC(C)C(O)c1ccc(Br)cc1 (stereo not given) | 4 | -0.41
O=C(Nc1ccc(C(F)(F)F)cc1)C(=O)N1CCN(c2ccccc2)CC1 | -3 | 0.55
CCCCCOCC(=O)NOc1ccccc1 | 0 | 0.02
COc1cc(OC)nc(NCCCn2nc(C)c(C)c2C)n1 | -14 | 1.24
CCCC[C@H](CC)C(=O)Nc1cccc(O)c1 | 29 | -3.76
Cn1nnc2c1C[C@@H](C(=O)N1CC(=O)Nc3cc(F)c(F)cc31)CC2 | -18 | 3.45
Cc1ccccc1N1CCN(C(=O)c2csc(CN(Cc3ccc(F)cc3)Cc3cccc(C(F)(F)F)c3)n2)CC1 | -22 | 1.92
O=C(Nc1ccccc1)c1ccc(-c2nc3ccccc3o2)cc1 | 1 | -0.11
CO[C@H]1CCCN(C(=O)c2coc(COc3cccc(F)c3F)n2)C1 | -7 | 1.25
CN1CCN(CCC(=O)NCc2ccc(-c3cccc(Cl)c3)o2)CC1 | 5 | -0.99
CC(C)(C)n1cnc(-c2nc(-c3cncc(O)c3)no2)n1 | -3 | 0.41
Cc1cccc(NC(=O)Nc2cccc3c2N(Cc2nnc(C(C)C)o2)CCC3)c1 | -4 | 0.47
CCOC(=O)C1CCN(c2cc3c(cc2NC(=O)NCC(C)C)n(C)c(=O)n3C)CC1 | -3 | 0.67
C[C@]1(C(=O)Nc2cc(-c3ccccc3)ns2)CC1(Cl)Cl | 0 | 0.03
CCN(C(=O)NCc1cc(F)c(F)cc1F)[C@H]1COC[C@@H]1O | -14 | 1.43
COc1ccc(CN2CCO[C@H](c3ccco3)C2)c(Cl)c1OC | -3 | 0.32
CC(C)(C(=O)N1CC(CC(F)F)C1)S(C)(=O)=O | 0 | 0.03
Cc1ccc(-c2cc(O)c3c(c2)CN(CC(=O)N2CCOCC2)CCO3)cc1 | -10 | 1.7
CCCCn1c(N)c(N(Cc2ccco2)C(=O)[C@H]2CC(=O)N(c3ccc(C)cc3)C2)c(=O)[nH]c1=O | -7 | 1.1
CCCS(=O)(=O)N(C)C[C@H](O)CN1CCC(C)CC1 | -16 | 1.47

Compound | % Inhibition [%] | Z score
N#Cc1ccccc1-c1ccc2c(c1)OC[C@@H](N1CCCC1)[C@@H]2O | 4 | -0.51
COc1cc2c(cc1OC)C(C)N(C(=O)CN(C)C(C)=O)CC(C)C2 (stereo not given) | -5 | 0.57
O=C(Nc1cccc2cccnc12)c1csnn1 | 6 | -1.1
COC(=O)Cn1cc(CN2CCN3CCNC(=O)[C@@H]3C2)c2ccccc21 | -9 | 1.43
COc1ccc(OC)c(S(=O)(=O)N2CC[C@@H]3[C@@H](COCCN3Cc3ccccc3)C2)c1 | 32 | -3.66
O=C(NCc1ccc2occc2c1)Nc1cccc(C2CCOCC2)c1 | -7 | 0.72
O=C(NC1CC(=O)N(c2ccc(Cl)c(F)c2)C1)C1CC12CCOC2 (stereo not given) | -5 | 0.46
COc1cc(C(=O)Nc2cccc(-c3nc4ncccc4o3)c2)ccc1OCc1ccc(Cl)cc1 | 3 | -0.44
COc1ccccc1C1(CNS(=O)(=O)N2CCCC2)CC1 | -1 | 0.13
O=C(NCCc1ccc2c(c1)OCCO2)c1ccncc1 | -2 | 0.31
Cc1csc(NC(=O)[C@@H]2Cc3ccccc3O2)n1 | -7 | 0.83
C[C@]1(c2ccccc2)CCC(=O)N(CCC(=O)N2CCCC2)C1 | -9 | 1.79
O=C(Cn1ccnc1)Nc1ncccc1O | 1 | -0.12
COc1ccccc1-c1ncc(CN2[C@@H](C)CC[C@H]2C(=O)O)cn1 | -7 | 1.47
Cn1ncc(Cl)c1C(=O)NCc1cccnc1Oc1ccc(F)c(F)c1 | -3 | 0.62
C=C(C)COc1cccc(CNCCN2CCC(O)CC2)c1 | -5 | 0.67
Cc1noc(C)c1Cc1c(C(=O)N2CCC[C@H](Cc3nncn3CC3CC3)C2)noc1C | -20 | 2.61
CCOC(=O)C1CCN(Cc2nnn(-c3ccc(F)cc3)c2C)CC1 | -1 | 0.12
CC(C)(C)[C@H](CO)Nc1nc(C(F)(F)F)ns1 | -1 | 0.11
